Read counts are not given, so values of variants with three or more changes are uncertain.
B1: LINE1-full (parent)
chain: UACGUAGGUGGUUUUCCCCUGAUAGUGCUAAGGGGGCCUGGAAGUUUGGACUGGGCAGAGCUCAACACAGCGUGGCAAAGUGGCUGUGGCUAGACUGCCUCUCUGGAUUCCUCGUCACUCAGCAGGGCAUCUCUGAGAGAAAUGCC

Variants of: B1
Experiment: self-cleavage, relative activity (ratio to wild type); higher = more cleavage; in vitro, sequencing; the parent is a self-cleaving ribozyme

Row | Variant | self-cleavage
1 | A57G A129G U132C | 1
2 | A57G A138G A142G | 2.92
3 | A57G A138G U143G | 0.62
4 | A57G C61U C103A | 0.08
5 | A57G C76U A136G | 2.29
6 | A57G C76U C98U U102C U130C | 0.04
7 | A57G C95U U104C | 0.06
8 | A57G C98U G114A | 0.04
9 | A57G C99G A129G | 0
10 | A57G C99U U134G A142G | 0.18
11 | A57G C103U C146U | 0.65
12 | A57G C113A C128U | 0.56
13 | A57G C128U U132A | 1.41
14 | A57G G60A A78G U119C | 0.07
15 | A57G G72U U102A | 1.03
16 | A57G G75C A141G | 0.36
17 | A57G G88A U104A A124G | 0.07
18 | A57G G105A A138G | 1.15
19 | A57G U62A A78C | 0
20 | A57G U62C A65G G93A | 0.08
21 | A57G U62C A69G | 0

Row | Variant | self-cleavage
22 | A57G U62C A78G | 0
23 | A57G U62C A124U | 0.07
24 | A57G U62C U119C A140G | 0
25 | A57G U73A A79G C95A U130C U132C | 0
26 | A57G U73A A94C A124U | 0.06
27 | A57G U73A U100C | 2.93
28 | A57G U73A U102C A141G | 0.77
29 | A57G U73C U91A A141G | 1.53
30 | A57G U81A U119C | 2.09
31 | A57G U81C G97U | 0.02
32 | A57G U81C U109C | 0.3
33 | A57G U85C U115A | 0.13
34 | A57G U87A U100C A129G | 0
35 | A57G U87A U134A | 0.1
36 | A57G U87C C90A | 0
37 | A57G U91C G114A | 0.23
38 | A57G U96A U108C A117G | 0
39 | A57G U96C U102C | 1.53
40 | A57G U100C A121U A142G | 2.1
41 | A57G U102A A140G | 0.32
42 | A57G U102C U130C U134C | 0

Row | Variant | self-cleavage
43 | A57G U104A U143G | 0.49
44 | A57G U108C U115C | 0.77
45 | A57G U115A U130C | 0.94
46 | A57G U115C A136U A141G | 1.84
47 | A57G U119C A129C | 2.59
48 | A57U A59G G86A U96C A136G | 0.04
49 | A57U A59G U85G | 0.16
50 | A57U A64G A107G | 0.18
51 | A57U A64G U109A | 0.17
52 | A57U A64U U87C | 0.06
53 | A57U A65G G72A U109C | 0.03
54 | A57U A67G A121C | 0
55 | A57U A67G U119C U132C | 0
56 | A57U A67G U143C | 0.09
57 | A57U A67U A78U | 0.02
58 | A57U A69G A140G | 0.12
59 | A57U A69G G86A U87A | 0.06
60 | A57U A69G U115C | 0.3
61 | A57U A69U A78U | 0.01
62 | A57U A69U A142G | 0.01
63 | A57U A77G U109A | 0.12

Row | Variant | self-cleavage
64 | A57U A77G U134A | 0.06
65 | A57U A77U A121G C123U A142G | 0.09
66 | A57U A78G U100C | 0.4
67 | A57U A79G A94G U134C | 0
68 | A57U A94U A107G U108C A142G | 0
69 | A57U A117G A141U | 0.13
70 | A57U A124U A142G | 0.05
71 | A57U A129G A138G | 0.15
72 | A57U C61U A124U U130A A136G | 0.04
73 | A57U C61U U108C U112A | 0.03
74 | A57U C68U U96C C145G | 0.06
75 | A57U C71G A79G A124U A129G A138G | 0
76 | A57U C71G G127U | 0.03
77 | A57U C110U A138G | 0.15
78 | A57U G74A U115G | 0.09
79 | A57U G106A A124U | 0.13
80 | A57U U62C U112C U132C | 0
81 | A57U U62C U130C | 0
82 | A57U U73C A79U U130A | 0.24
83 | A57U U73C A121G A138G | 0.3
